The whole screen tested about 310,000 compounds, of which about 2,200 (0.71%) showed an effect of 50% or more. The effect is printed as a negative number. The list shows a part of the results.

The target of the assay is human ether-à-go-go-related gene (hERG) potassium channel (human, UniProt Q12809). Kind of assay: primary screen, population patch clamp on CHO cells stably expressing hERG.
Sequence of human ether-à-go-go-related gene (hERG) potassium channel (Q12809 whole entry, looked up): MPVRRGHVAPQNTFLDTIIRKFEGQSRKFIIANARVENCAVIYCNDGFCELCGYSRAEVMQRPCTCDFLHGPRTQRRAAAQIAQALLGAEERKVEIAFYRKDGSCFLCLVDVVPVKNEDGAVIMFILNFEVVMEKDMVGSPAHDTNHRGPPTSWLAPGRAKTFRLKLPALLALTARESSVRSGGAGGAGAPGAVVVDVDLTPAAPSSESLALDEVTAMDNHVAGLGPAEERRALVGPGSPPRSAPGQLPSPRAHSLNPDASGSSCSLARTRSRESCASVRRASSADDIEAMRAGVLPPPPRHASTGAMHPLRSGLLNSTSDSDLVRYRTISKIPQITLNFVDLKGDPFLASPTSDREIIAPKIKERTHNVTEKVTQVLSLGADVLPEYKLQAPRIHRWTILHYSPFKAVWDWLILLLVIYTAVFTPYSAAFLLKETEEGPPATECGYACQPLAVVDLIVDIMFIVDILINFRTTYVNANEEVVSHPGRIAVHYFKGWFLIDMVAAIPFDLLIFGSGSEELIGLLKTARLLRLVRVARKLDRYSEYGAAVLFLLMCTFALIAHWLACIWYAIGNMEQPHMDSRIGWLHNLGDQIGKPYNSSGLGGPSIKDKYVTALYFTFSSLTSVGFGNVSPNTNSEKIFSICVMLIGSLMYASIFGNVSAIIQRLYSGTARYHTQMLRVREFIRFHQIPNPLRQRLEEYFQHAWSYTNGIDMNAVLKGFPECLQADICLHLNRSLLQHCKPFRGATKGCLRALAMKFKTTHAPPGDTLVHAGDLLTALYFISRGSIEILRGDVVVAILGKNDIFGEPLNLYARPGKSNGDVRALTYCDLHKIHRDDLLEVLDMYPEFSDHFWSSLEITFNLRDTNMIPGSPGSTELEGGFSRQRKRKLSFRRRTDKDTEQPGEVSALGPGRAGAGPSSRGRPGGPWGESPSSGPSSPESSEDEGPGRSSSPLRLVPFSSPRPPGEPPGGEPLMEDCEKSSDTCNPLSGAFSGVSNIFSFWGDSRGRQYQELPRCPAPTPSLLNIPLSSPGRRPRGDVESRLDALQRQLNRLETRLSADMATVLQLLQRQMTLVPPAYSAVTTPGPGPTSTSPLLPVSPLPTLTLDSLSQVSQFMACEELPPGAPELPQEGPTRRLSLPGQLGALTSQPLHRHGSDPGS
On to `CCOc1ccc(NC(=O)COC(=O)c2c(OC)cccc2OC)cc1`, for which the “hERG current change (%, negative = inhibition) at 1uM” value is -0.332%.
In the case of `Cn1c(=O)c2c(nc(NCc3ccco3)n2CC(O)CO)n(C)c1=O` (centres unmarked) it was 6.33%; in that of `O=C(O)CCC(=O)NC1CCCCCCC1`, 7.73%.
For the compound `c1ccc(CSc2ncn[nH]2)nc1`, the “hERG current change (%, negative = inhibition) at 1uM” value is listed as 16%.
With `CCCOc1ccc(NC(N)=O)cc1OCCC` the figure was 4.53%; with `O=C(Cc1ccccc1)Nc1cccc(S(=O)(=O)N2CCCCCC2)c1`, 1.36%; with `Cc1ccnc(NC(=O)CCC(=O)N(Cc2ccco2)C(C(=O)NC(C)C)c2ccc(F)cc2)c1` (centres unmarked), 8.98%.
With `CCn1c(SCC(=O)c2ccccc2)nc2sc3c(c2c1=O)CCN(C)C3` the figure was 10.1%; with `Cc1nn2c(=O)cc(COC(=O)c3c(F)cccc3Cl)nc2s1`, 13.1%; with `Cn1c(CCNC(=O)c2cccs2)n[nH]c1=S`, 17.6%.
Take `CC1CCC(C(=O)NNC(=O)c2cc(-c3ccco3)[nH]n2)CC1` (centres unmarked): the “hERG current change (%, negative = inhibition) at 1uM” value is given as 6.83%.
As to `CN(C)CCOc1ccc(C(C)(C)c2ccccc2)cc1.O=C(O)C(=O)O`, the “hERG current change (%, negative = inhibition) at 1uM” value is 11.4%.
With `COc1ccc(/C=C(/NC(=O)c2ccccc2)C(=O)NCCN2CCOCC2)cc1OC` the figure was 14.3%; with `O=c1c([N+](=O)[O-])cc(C(F)(F)F)cn1Cc1cccc(Cl)c1`, 11.2%.
For `CCCn1c(-c2cccs2)nc2nc3ccccc3nc21`, the “hERG current change (%, negative = inhibition) at 1uM” value came out at 4.44%.
With `O=[N+]([O-])c1cnccc1NC1CCCCC1` the figure was 13.8%.
Consider `O=C(NCc1csc2ccc(Cl)cc12)Nc1cccc2ccccc12`, for which the “hERG current change (%, negative = inhibition) at 1uM” value was 14.5%.
For the compound `Cc1cccc(C2CC3(CC(C)(C)NC(=S)N3)Oc3cc(O)ccc32)c1` (centres unmarked), the “hERG current change (%, negative = inhibition) at 1uM” value was determined as 4.46%.
As for `COc1ccc([C@H]2CC(=O)C=C(c3ccc4c(c3)OCO4)C2)cc1OC`, the “hERG current change (%, negative = inhibition) at 1uM” value is recorded as 3.65%.
On to `CN1CCCN(C(=O)COc2ccccc2)CC1`, for which the “hERG current change (%, negative = inhibition) at 1uM” value came to 10%.
Turning to `CC(C)(C)N1C(=O)[C@H]2[C@@H](c3ccc(Br)cc3)N3C(=O)N(c4cccc(F)c4)C(=O)[C@@]3(Cc3ccccc3)[C@H]2C1=O`, the “hERG current change (%, negative = inhibition) at 1uM” value is 7.07%.
With `CCCn1c(C)nc2cc(Cl)c(N3CCN(c4nc(-c5ccc(C)cc5)cs4)CC3)cc21` the figure was 10.7%; with `CCOc1ccc(NC(=O)c2nn(C)cc2Br)cc1`, 2.04%.
Regarding `C=CCNC(=S)N1CCC(C(N)=O)CC1`, the “hERG current change (%, negative = inhibition) at 1uM” value is 7.33%.
With `CN(c1ccc(C(=O)NCCc2ccccc2)cc1)S(C)(=O)=O` the figure was 12.6%.
Consider `CC(C)[C@H](NC(=O)N1CCn2c1nc1ccccc12)C(=O)NCCc1ccccc1`, for which the “hERG current change (%, negative = inhibition) at 1uM” value turned out to be 11.8%.

Source of the values: paper PMC4336329 (PLoS ONE, 2015).
